Source: paper PMC4336329 (PLoS ONE, 2015)
Among all 310,000 compounds or so, about 2,200 (0.71%) showed an effect of 50% or more. Effects have a minus sign here. The list shows a part of the results.

Each molecule was assayed against human ether-à-go-go-related gene (hERG) potassium channel (human, UniProt Q12809) (assay: primary screen, population patch clamp on CHO cells stably expressing hERG).
human ether-à-go-go-related gene (hERG) potassium channel, sequence (Q12809 whole entry, looked up): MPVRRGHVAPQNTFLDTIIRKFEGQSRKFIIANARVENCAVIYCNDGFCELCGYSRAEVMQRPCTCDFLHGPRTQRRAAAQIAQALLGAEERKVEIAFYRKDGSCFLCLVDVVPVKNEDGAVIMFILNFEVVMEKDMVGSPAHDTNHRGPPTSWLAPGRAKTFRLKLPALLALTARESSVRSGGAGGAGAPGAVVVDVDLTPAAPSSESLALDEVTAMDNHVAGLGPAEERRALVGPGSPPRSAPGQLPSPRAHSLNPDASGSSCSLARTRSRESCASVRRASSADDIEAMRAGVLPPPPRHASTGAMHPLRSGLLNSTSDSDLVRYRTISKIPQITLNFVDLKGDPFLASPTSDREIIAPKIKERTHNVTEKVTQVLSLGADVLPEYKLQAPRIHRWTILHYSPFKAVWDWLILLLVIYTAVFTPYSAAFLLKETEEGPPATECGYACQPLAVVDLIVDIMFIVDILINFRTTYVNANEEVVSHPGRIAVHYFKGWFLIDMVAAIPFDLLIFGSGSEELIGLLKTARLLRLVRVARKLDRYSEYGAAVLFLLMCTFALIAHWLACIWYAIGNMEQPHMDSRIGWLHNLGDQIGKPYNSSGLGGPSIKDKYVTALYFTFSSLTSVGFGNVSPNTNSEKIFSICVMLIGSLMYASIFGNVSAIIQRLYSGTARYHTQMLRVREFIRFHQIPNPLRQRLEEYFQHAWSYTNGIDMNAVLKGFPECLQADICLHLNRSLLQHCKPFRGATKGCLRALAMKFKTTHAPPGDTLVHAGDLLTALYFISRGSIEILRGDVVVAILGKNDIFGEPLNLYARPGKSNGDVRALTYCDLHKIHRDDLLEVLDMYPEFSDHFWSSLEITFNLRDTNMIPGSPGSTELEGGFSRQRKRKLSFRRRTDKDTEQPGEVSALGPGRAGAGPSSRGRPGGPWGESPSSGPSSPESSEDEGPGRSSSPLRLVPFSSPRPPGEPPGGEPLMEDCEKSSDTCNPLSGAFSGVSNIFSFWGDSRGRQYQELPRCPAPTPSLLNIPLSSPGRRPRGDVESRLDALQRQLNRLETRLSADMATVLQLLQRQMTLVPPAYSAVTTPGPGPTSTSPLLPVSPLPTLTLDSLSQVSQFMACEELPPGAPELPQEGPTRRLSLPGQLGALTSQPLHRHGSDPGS

SMILES	hERG current change (%, negative = inhibition) at 1uM [%]
O=C(NCc1ccc(Cl)cc1Cl)C1CCN(S(=O)(=O)c2ccc3c(c2)OCCCO3)CC1	3.3
O=C(COc1c(F)c(F)c(C(F)(F)F)c(F)c1F)Nc1ccc(N2CCOCC2)c(Cl)c1	13.5
C#CCN1C(=O)C(O)(CC(=O)c2cc(OC)ccc2OC)c2ccccc21 (centres unmarked)	11.7
COc1ccc(C(O)(C2CCCCC2)C(CN2CCCC2)c2ccccc2)cc1.Cl (centres unmarked)	3.48
O=C(N[C@@H](Cc1ccccc1)C(=O)NC1CCCCC1)c1ccco1	12.7
Cc1ccc(N=c2c([N+](=O)[O-])nn(-c3ccc4c(c3)OCCO4)n2O)cc1F	5.64
CC(C)CCNC(=O)CN(CCCN1CCOCC1)C(=O)Cn1nnc(-c2ccc(F)cc2)n1	2.06
CCOc1ccc(Br)cc1S(=O)(=O)N1CCCC1	0.606
O=C1c2ccccc2-c2nc3ccccc3n21	10.5
Cc1ccc2nc(-c3ccc(NS(=O)(=O)c4c(C)n(C)c(=O)n(C)c4=O)cc3)sc2c1	6.05
O=C(Cn1c(COc2ccc(Cl)cc2)nc2ccccc21)NCC(F)(F)F	18.5
Clc1ccc(-n2cc(-c3ccc(Br)cc3)[n+]3c2CCCCC3)cc1.[Br-]	-4.15
CCOc1ccc(N(C)S(=O)(=O)c2ccc3[nH]cc(C(=O)NCC(OC)OC)c(=O)c3c2)cc1	8.98
CC(C)(C)C(=O)NC(=S)Nc1sc2c(c1C#N)CCCCC2	10.6
CC1(C)Cc2c(cnn2-c2ccccc2)C(NC(=O)CCN2CCCC2=O)C1 (centres unmarked)	14.2
COC(=O)/C(=C/c1ccc2c(c1)c1ccccc1n2C)NC(=O)c1ccccc1	8.23
CCOc1ccccc1NC(=O)CSc1nnc2ccc(-c3ccncc3)nn12	-5.75
NC(=O)c1nsc(C(=O)N(CCc2ccccc2)C(C(=O)NC2CCCC2)c2ccco2)c1N (centres unmarked)	1.24
Nn1c(COc2ccccc2)nnc1SCc1cc(=O)[nH]c2ccccc12	-5.08
COc1ccc(N2CCN(Cc3cc(=O)oc4cc5c(cc34)CCCC5)CC2)cc1	7.51
Cc1c(C(=O)NNC(=S)Nc2cccc(Cl)c2)nnn1-c1ccccc1	1.39
CCCCn1c(N)c(N(CCOC)C(=O)c2sc3cc(F)ccc3c2Cl)c(=O)[nH]c1=O	1.16
O=c1cc(O)c2sc(Nc3ccc(F)c(Cl)c3)nc2[nH]1	29.7
CCOc1cc(NC(=O)c2ccco2)c(OCC)cc1NC(=O)COc1ccccc1	10.9
O=C(c1ccccc1)C1Oc2ccccc2C2CC(c3cccs3)=NN12 (centres unmarked)	7.35
Cc1ccccc1C(=O)NCC(=O)OCCOc1ccc(C(C)C)c(C)c1	9.24
N#CCCn1cc(C(=O)N2CCOCC2)c(-c2ccc3c(c2)OCCO3)n1	6.82

SMILES	hERG current change (%, negative = inhibition) at 1uM [%]
CCCCCCCC(O)CC(CC1CCCCC1)C(=O)NN (centres unmarked)	5.39
COc1ccc(NC(=O)c2c3c(nc4ccccc24)CCN(Cc2ccccc2)C3)c(OC)c1	-0.95
CC1CCCN(C(=O)c2cn(-c3ccccc3)nc2-c2cccnc2)C1 (centres unmarked)	5.87
Cc1ccc(NC(=O)NCCN2CCN(c3ccccc3)CC2)cc1Cl	11.7
C/C(=N\OC(=O)c1cccc(Cl)c1)c1sc(C)nc1C	13.5
CN(C)CCNC(=O)C(=O)NCC1OCCN1S(=O)(=O)c1ccc2c(c1)OCCO2 (centres unmarked)	10.5
Cc1cc(NS(=O)(=O)c2ccc(NC(=O)C(c3ccccc3)c3ccccc3)cc2)no1	0.758
CCN(CC)C(=O)Cn1cc(C(=O)C(=O)N(CC)C2CCCCC2)c2ccccc21	0.97
Cc1ccc(C)c(NC(=O)c2nnn(Cc3ccccc3)c2N)c1	0.176
CC(NC(=O)Cc1ccc(S(=O)(=O)N2CCCCC2)cc1)c1ccccc1 (centres unmarked)	10.6
O=c1nc2scc(-c3ccccc3)n2c2ccccc12	11.5
Cn1cc(-c2nc3ccccc3[nH]2)c2ccccc21	1.18
CC(C)(C)NC(=O)c1ccc2c(c1)N(CC(=O)N1CCCCC1)C(=O)C(C)(C)O2	14.3
Cc1ccc(C(C)C)c(OCC(=O)OCc2c(C)noc2C)c1	10.8
O=C(COc1cccnc1[N+](=O)[O-])Nc1ccc(N2CCOCC2)cc1	8.5
CCCCOCC(O)Cn1c(C)nc2ccccc21.O=C(O)C(=O)O (centres unmarked)	7.83
C=CCN1c2ccccc2[C@]23C[C@@H](C(=O)OC)N(C(=O)c4ccc(Br)cc4)C2=NC(C(=O)OC)=C(C(=O)OC)[C@H]13	6.14
CSc1ccccc1OCc1cc(C(=O)NCCCc2ccccc2)no1	19
COc1cccc(CCNCc2ccc(SC)cc2)c1.O=C(O)C(=O)O	-19.5
CCOC(=O)c1c(-c2ccc(-c3ccccc3)cc2)csc1NC(=O)c1cccc(N2C(=O)CCC2=O)c1	7.58
Cc1ccc(C(=O)N(Cc2ccc3c(c2)OCO3)Cc2nc3ccccc3c(=O)[nH]2)cc1	8.32
COC(=O)C1=C(CS(=O)(=O)c2cc(Cl)ccc2OC)NC(=O)NC1c1ccc(O)c(OC)c1 (centres unmarked)	16.9
O=S(=O)(NCCn1ccc2ccccc21)c1ccccc1	-12.6
CC1CCc2nc(NC(=O)CN3CCN(Cc4ccc5c(c4)OCO5)CC3)sc2C1 (centres unmarked)	-6.64
COC(=O)c1cccc(C(=O)Nc2ccc(C)cc2)n1	9.98
O=C(NC1CC1)C1CCN(S(=O)(=O)c2ccc(Cl)cc2)CC1	13.2
